Measured values as given in the RNAGym collection of RNA variant scans (doi:10.7554/elife.90254).
The source gives no read counts; variants with many changes may rest on few reads.

B1: LINE1-mini (parent)
chain: GGCAGAGCUCAACACAGCGUGGCAAAGUGGCUGUGGCUAGACUGCC

Variants of: B1
Assay: self-cleavage, relative activity (ratio to wild type); higher = more cleavage; in vitro, sequencing; the parent is a self-cleaving ribozyme

Row | Variant | self-cleavage
1 | U20G G36U U38C | 0.05
2 | G19U G30A U43A | 0.02
3 | G19C C23G G44A | 0.24
4 | C18U G27U C46U | 0.23
5 | C18U G30A G36C | 0.06
6 | U20A G21A G35A G36A | 0.09
7 | G19C U20A G35A G40C | 0.03
8 | U20G C23U G29U G30A | 0.3
9 | U20A G30U C31U | 0.05
10 | G19C C31U G35U C37U | 0.02
11 | G19U U20A G35U | 0.1
12 | U20G A25C G33U G40U | 0.07
13 | U20G C23A C31U U43C | 0
14 | C18U G29U C42U | 0.11
15 | G19A G27A G29A A39U | 0.58
16 | G19U G36U U38A | 0.02
17 | G19C A24C G27A U32A G33U G35C C42A | 0.01
18 | G19A C37A U43A G44U | 0.26
19 | G19U G21U A26C C46G | 0.19
20 | G19U G21U C45G | 0.03
21 | U20C A25U U28G G30A | 0.27
22 | U20G A26U G29U U34C | 0.06
23 | C18U G36C C37U | 0.01
24 | C18U G35C U43A | 0.04

Row | Variant | self-cleavage
25 | G19U C42U C46A | 0.05
26 | C18U G33A A39G | 0.02
27 | C18U G27U G36C | 0.03
28 | G19U A25C G36U | 0.05
29 | G19U G36C C37U G40U | 0.1
30 | G19U C23G C45U | 1.38
31 | G19C A39G A41G C46U | 0
32 | G19A G22U G29A C31A C37U | 0.03
33 | G19A G35A A39U | 0.18
34 | U20A C23A G36U | 0.02
35 | G19A A25C G29C G36U | 0.03
36 | U20A G22A U38C G40A | 0.2
37 | U20G G22C A26U G29U G40U | 0.07
38 | U20A A24U C31A | 0
39 | U20G G30A C42G | 0.08
40 | G19A A39C C46G | 0.15
41 | U20A C23G G44C | 0.01
42 | U20C U28G G36C | 0.04
43 | G19U C37A A39U | 0.02
44 | U20A U32C G44C | 0.07
45 | U20A G21U A25C U32G U38C | 0.01
46 | U20A G30A C45A | 0.28
47 | G19C G33C C37G | 0.05
48 | U20G A26C G27U G40U | 0.01

Row | Variant | self-cleavage
49 | G19A U32C G33C | 0.04
50 | U20A G21U C23U | 0.57
51 | U20C C23G C37G U43C | 0.03
52 | U20A G35A C37G | 0.01
53 | U20G U32G C45U | 0
54 | G19U A25C G30A | 0.29
55 | U20A G21U C31A G36A | 0.02
56 | C18U U34C C46G | 0.03
57 | C18U G27U U38A | 1.6
58 | U20A G27U U28G | 0.35
59 | G19U G21A C23A G40A | 0.03
60 | C18U U20C G29A | 0.22
61 | G19C G27A U28G G33U C37A | 0.02
62 | U20A G22A G33U C37A | 0.06
63 | G19U A24G C37G U38C | 0.01
64 | U20A U28C G36U | 0.03
65 | G19C G21A G22C | 0.13
66 | G19U U20G C23A G29U G36C | 0.16
67 | G19C G21C A26U A39C | 0.03
68 | C18U U20G C37A | 0.02
69 | G19U G40U G44U | 0.05
70 | U20G G40A C46A | 0.02
71 | G19A G27A G33U | 0.44
72 | G19A U20A A41U C46U | 0.14

Row | Variant | self-cleavage
73 | G19U G27U U43G | 0
74 | U20C U28C G29C | 0.05
75 | U20A A39U G40U C46A | 0.05
76 | U20G A26C U34G G40U | 0.03
77 | G19U G30A C42A | 0.02
78 | G19U C23A C37U U38G | 0.02
79 | U20G G27U C31G G44U | 0.02
80 | U20A C31A U32C U38C | 0.03
81 | U20C G30A G35A | 0.16
82 | G19U G22U C46A | 0.93
83 | G19U U20C C31U | 0.66
84 | U20A C31U G40U | 0.01
85 | G19A G33A G44C | 0.02
86 | U20C G22A C46U | 0.46
87 | G19C G30A A39G U43G | 0
88 | C18U U20G C45U C46A | 0.09
89 | U20A G35C C37U A39U | 0.04
90 | G19A A24C G33A | 0.04
91 | U20G G33U C37A | 0.07
92 | G19A A26U C45A | 0.49
93 | G19U U20C A41U C45G | 0.04
94 | U20A C37A G40U C42A | 0.03
95 | U20G A25U U28C G35U | 0.13
96 | U20G C31A G36U | 0.11

Row | Variant | self-cleavage
97 | U20G A24C U38A G44C | 0.08
98 | G19C G35U C45U | 0.04
99 | U20C A25U G44A | 0.15
100 | U20G A25C C42U | 0.08
101 | G19A G27A U32A | 0.11
102 | G21A A24C G36A | 0.13
103 | G19U U20A U34G G40U | 0.05
104 | G19U G29C G33U C37U A39G | 0.04
105 | U20C A25U G36U | 0.03
106 | G19A G30A C46A | 2.38
107 | G19C C23U C37A | 0.02
108 | G19C U32C C42G | 0.06
109 | U20G U28C A41G | 0.08
110 | G19U U34C G40C | 0.05
111 | U20G C31G G44U | 0.02
112 | G19U G21U G30C G40C | 0.03
113 | G19C A24C G27C | 0.13
114 | G19A G30C G40A C42U C46U | 0.02
115 | U20G G27U G33A C42A G44A | 0.06
116 | G19C C37U A41C | 0.01
117 | G19C C23A C31U G35U | 0.05
118 | U20A C37U A41C | 0.02
119 | G19A U20G G44C | 0.14
120 | C18U U28G G35A | 0.03

Row | Variant | self-cleavage
121 | U20C G36A U38A A41G G44U | 0.27
122 | G19U C23A G29C C31A | 0.1
123 | U20C A25C G27A G36C | 0.02
124 | G19U A25C G27C C37G | 0.03
125 | G19U G22A A25U A26U | 0.18
126 | G19A A24C G29U | 0.62
127 | G19A G29A A41G G44C | 0.04
128 | U20G G21U G36A | 0.03
129 | G19C U34A U38C C45G C46A | 0.02
130 | U20C G22A C23A A24G A39C | 0.02
131 | G19C G21U G30C C31G | 0.08
132 | U20A A25U C31A | 0.05
133 | C18U U28G G30A G33U G40A | 0.04
134 | U20G C23A C37G | 0.02
135 | C18U G33C U38G | 0.02
136 | U20G G44A C46U | 0.03
137 | C18U G33C G44A C45U | 0
138 | G19A A26C U28C | 0.17
139 | U20G A24U G27C | 0.3
140 | U20G G35C C45G | 0.03
141 | U20C G22C C23A U34C C37U | 0
142 | C18U G29A G33C | 0.01
143 | G19A C23U C31U | 0.59
144 | G19A G30U C46G | 0.99

Row | Variant | self-cleavage
145 | U20C G30U C31A G40U | 0.02
146 | C18U G40U C42U | 0.01
147 | C18U G36A A39C | 0.03
148 | U20G A25U C37U G40C | 0.03
149 | G19U A25G G30A C46A | 0.86
150 | G19C G27U G29U G40U | 0.13
151 | G19A U20A G36C | 0.03
152 | G19U G35C G36C | 0.06
153 | C18U U20A U34A G40A | 0.03
154 | G19A G21U U28G G40C | 0.07
155 | G19U U20C C23A | 0.12
156 | U20G G22A C23A C37U | 0.03
157 | G19A G27A G30C | 2.23
158 | G19A G22C A25C U38G | 0.01
159 | G19U U32C G33U | 0.03
160 | U20C G21U G36A | 0
161 | G19U U32G G36A | 0.05
162 | U20A U28C G33A | 0.04
163 | U20A G22A G29U | 0.29
164 | C18U U20G G21U | 1.46
165 | U20A U28A G40C | 0.03
166 | G19C A25G G29C | 0.36
167 | G19C U20A G30U G33U G44U | 0.08
